Measured values as given in PubChem BioAssay (NCI).
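Growth conditions: 96-well plates. Treatment: test compound, 48 hours, 5 concentrations. Analysis: linear interpolation between bracketing concentrations; unreached endpoints set to highest concentration. GI50 marks 50% less growth. At the TGI there is no net growth.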

System: NCI-H322M lung
Assay: DTP human tumour cell line panel, 48 h

SMILES	GI50 [µM]	TGI [µM]
CCO/C=N/C1=C(C#N)C(c2ccc(F)cc2)c2sc3c(CC)cccc3c2O1 (centres undefined)	0.699	18.2
N#Cc1c(-c2ccc(Cl)cc2)nc(SCc2ccc(F)cc2)nc1N1CCNCC1	2.17	5.53
